In all, about 310,000 compounds went through this assay and about 14,000 (4.5%) showed an effect of 50% or more. The effect is printed as a negative number. The list shows a part of the results.
molecular target: human ether-à-go-go-related gene (hERG) potassium channel (human, UniProt Q12809); experiment: primary screen, population patch clamp on CHO cells stably expressing hERG
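Further: peak tail current of the secondary pulse compared with the same well before compound.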

Sequence of human ether-à-go-go-related gene (hERG) potassium channel (Q12809 whole entry, looked up): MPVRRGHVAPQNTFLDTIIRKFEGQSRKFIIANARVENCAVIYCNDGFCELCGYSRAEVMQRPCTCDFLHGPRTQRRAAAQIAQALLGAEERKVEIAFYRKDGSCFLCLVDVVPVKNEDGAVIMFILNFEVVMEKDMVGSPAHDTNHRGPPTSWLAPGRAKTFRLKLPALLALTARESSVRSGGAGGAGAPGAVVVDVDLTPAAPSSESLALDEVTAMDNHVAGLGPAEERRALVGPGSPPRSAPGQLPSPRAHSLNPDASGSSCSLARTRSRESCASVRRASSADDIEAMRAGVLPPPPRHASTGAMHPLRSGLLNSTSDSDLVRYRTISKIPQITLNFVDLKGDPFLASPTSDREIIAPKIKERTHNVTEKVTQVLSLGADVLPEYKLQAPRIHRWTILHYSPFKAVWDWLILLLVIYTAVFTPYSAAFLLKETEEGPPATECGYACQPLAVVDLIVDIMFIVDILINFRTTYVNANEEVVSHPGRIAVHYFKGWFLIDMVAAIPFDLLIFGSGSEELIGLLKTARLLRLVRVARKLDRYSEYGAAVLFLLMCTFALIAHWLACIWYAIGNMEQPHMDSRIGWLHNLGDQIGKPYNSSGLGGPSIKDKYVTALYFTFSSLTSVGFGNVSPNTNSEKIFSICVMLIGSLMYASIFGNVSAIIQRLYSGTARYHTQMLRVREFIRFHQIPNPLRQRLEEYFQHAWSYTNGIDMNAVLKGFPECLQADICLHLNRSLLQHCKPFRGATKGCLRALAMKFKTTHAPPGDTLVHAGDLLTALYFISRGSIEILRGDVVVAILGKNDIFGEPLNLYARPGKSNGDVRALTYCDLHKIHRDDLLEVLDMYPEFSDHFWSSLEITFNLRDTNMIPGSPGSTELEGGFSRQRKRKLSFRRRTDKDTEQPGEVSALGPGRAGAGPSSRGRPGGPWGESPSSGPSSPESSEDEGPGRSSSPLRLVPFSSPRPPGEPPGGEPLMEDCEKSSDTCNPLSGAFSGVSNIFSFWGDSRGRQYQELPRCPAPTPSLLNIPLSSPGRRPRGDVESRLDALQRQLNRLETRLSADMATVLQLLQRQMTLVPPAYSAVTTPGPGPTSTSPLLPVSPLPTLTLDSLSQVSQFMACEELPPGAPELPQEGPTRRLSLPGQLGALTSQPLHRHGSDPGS

Row | SMILES | hERG current change (%, negative = inhibition) at 10uM [%]
1 | COc1ccc(NC(=O)C2CCC(=O)N2S(=O)(=O)c2ccc(C)cc2)cc1Cl (stereo not drawn) | 14.9
2 | COc1ccccc1-c1coc2c(CN3CCCC(C)C3)c(O)ccc2c1=O (stereo not drawn) | -2.44
3 | COc1cc2c(cc1OC)C(c1cccc([N+](=O)[O-])c1)N(C(=O)c1ccc(F)cc1)CC2 (stereo not drawn) | -26.2
4 | COC(=O)Cc1ccc(NC(=O)c2cccs2)cc1 | 8.53
5 | Cc1ccccc1OCC(=O)OCC(=O)Nc1cc(C(F)(F)F)ccc1N1CCOCC1 | 12.9
6 | O=[N+]([O-])c1ccc(-c2csc(N/N=C/c3cccnc3)n2)cc1 | 57.2
7 | COc1ccc(C2=NOC(C(=O)Nc3cc(C)nn3-c3ccccc3)C2)cc1OC (stereo not drawn) | -13.5
8 | O=C(NCC1CCCO1)C1CCC(=O)N1Cc1ccc(F)cc1 (stereo not drawn) | 21.1
9 | COc1ccc(OCc2cc(=O)[nH]c3ccccc23)cc1 | 4.48
10 | CC(C)(C)c1nnc(NC(=O)c2ccc(Cl)nc2)s1 | 4.04
11 | CCN(CC)S(=O)(=O)c1cccc(C(=O)Nc2cc(C)cc(C)c2)c1 | -32.6
12 | CC1(C)OC(C(N)=O)C(C(N)=O)O1 (stereo not drawn) | -9.79
13 | CC1CCCCN1S(=O)(=O)c1ccc2c(c1)CCN2C(=O)C1CCC1 (stereo not drawn) | 8.19
14 | O=C1c2ccccc2C(=O)N1CCn1nc(Cl)nc1Cl | 2.3
15 | COc1ccc(O)c(CN2CCCC(C(=O)Nc3cccc(-n4cccn4)c3)C2)c1 (stereo not drawn) | -14.9
16 | O=S(=O)(Nc1ncccn1)c1ccc(NC(=S)Nc2ccc(Cl)cc2)cc1 | 14.9
17 | CC(C)c1ccc(/C=N/NC(=O)c2c(Cl)cnn2C)cc1 | -14.5
18 | COC(=O)C1=C(C)N(c2ccc(Cl)cc2)/C(=C/c2ccc(O)cc2)C1=O | 6.31
19 | COc1ccc(N2CCN(C(=O)c3ccc4[nH]c(C)c(C)c4c3)CC2)cc1 | -14.3
20 | Cn1c(SCC(=O)Nc2ccccc2)nnc1C(F)(F)F | 32.6
21 | Cc1cc(C(=O)N/N=C/c2cn(C)nc2C)c2ccccc2n1 | 10.9
22 | Cc1ccc2[nH]c(=O)c3cc(C(=O)NCC4CCCO4)sc3c2c1 (stereo not drawn) | -3.5
23 | Cn1nc(CC(=O)Nc2cccnc2N2CCOCC2)c2ccccc2c1=O | -7

Row | SMILES | hERG current change (%, negative = inhibition) at 10uM [%]
24 | CCC1CCCCN1C(=O)N[C@@H](Cc1ccccc1)C(=O)O (stereo partly drawn) | 15.2
25 | Cc1ccc(C(=O)Nc2oc(-c3ccccc3)cc2C#N)cc1 | 18.9
26 | CCCCC(CC)CNC(=O)CC1Nc2c3ccccc3nc(=S)n2C1=O (stereo not drawn) | 13.9
27 | COc1cccc2c(N/N=C/c3ccccc3)cc(C)nc12 | -9.04
28 | O=C(CN(Cc1ccccc1)S(=O)(=O)c1ccccc1)NC1CC1 | -3.03
29 | CC(Oc1ccccc1)C(=O)Nc1nnc(S(=O)(=O)N2CCCCCC2)s1 (stereo not drawn) | 4.16
30 | Nn1c(SCC(=O)Nc2ccc3c(c2)OCO3)nnc1C1CCCCC1 | 1.5
31 | Cc1cc(Br)ccc1NC(=O)CN(C)C(=O)Cn1c(=O)cnc2ccccc21 | -13.4
32 | CCOc1ccc(C(=O)CSc2nnc(N)s2)cc1 | -4.8
33 | NC(=O)c1ccc(NC(=O)Nc2ccc3c(c2)OCO3)cc1 | 16.4
34 | COc1cc(C(=O)NCCN2CCCC2)cc(OC)c1OC.Cl | 9.26
35 | COc1ccc(CCNC(=O)C(=O)NCCOc2ccccc2Cl)cc1OC | 23.2
36 | COC(=O)C1=C(C)NC(C)=C(C(=O)OC)C1c1ccccn1 | 5.81
37 | N#CC1=C(N)N(c2ccc(Br)cc2)C2=C(C(=O)CCC2)C1c1cccnc1 (stereo not drawn) | -27.3
38 | COC(=O)Cn1c(=NC(=O)C2CC2)sc2c(C)cc(C)cc21 | 11.2
39 | O.Oc1cc(O)c2c(c1)O[C@H](c1ccc(O)c(O)c1)[C@@H](O)C2 | 17.4
40 | Cc1ccc(C(=O)NCC(=O)NCCSc2ccc(Br)cc2)cc1 | 4.26
41 | O=C(NCc1ccc2c(c1)OCO2)c1cc([N+](=O)[O-])ccc1N1CCCCC1 | -27.5
42 | O=C(CCC1CCCC1)Nc1ccc(C(=O)NCc2cccnc2)cc1 | -24.5
43 | Cn1cnc(S(=O)(=O)NCc2ccccc2)c1 | 2.77
44 | CCC(=O)Nc1ccc(-c2ccc(NC(=O)CC)c(OC)c2)cc1OC | 10.2
45 | CCCS(=O)(=O)N1CCCC(C(=O)NCC(OC)OC)C1 (stereo not drawn) | 11
46 | O=C(NC(=S)N1CCCC1)c1ccccc1Cl | 15.1

Row | SMILES | hERG current change (%, negative = inhibition) at 10uM [%]
47 | CCOc1ccccc1C(=O)NC(C)c1ccc2c(c1)OCO2 (stereo not drawn) | -30.9
48 | CCOC(=O)C(C)NC(=O)c1cn(-c2ccc(OC)cc2)c(=O)c2ccccc12 (stereo not drawn) | 5.7
49 | c1ccc(C(CN2CCOCC2)c2ccccc2)cc1 | -10.1
50 | CCN1CCN(C(=O)c2ccc(CN(c3ccc(C)c(C)c3)S(C)(=O)=O)cc2)CC1 | -20.8
51 | CCOC(=O)C(C(C)=O)=C1SC2CS(=O)(=O)CC2S1 (stereo not drawn) | -8.74
52 | Cc1cc(C)nc(-n2nc(C)cc2NC(=O)CNC(C)c2ccccc2)n1 (stereo not drawn) | -62.2
53 | Cc1cc(NCCCN(C)C)n2c(nc3ccccc32)c1C#N | -1.49
54 | O=C(Nc1ccccc1)c1ccc(CSc2ncccn2)cc1 | 19.3
55 | Cc1ccc(-n2ncc3c(=O)n(CC(N)=O)cnc32)cc1 | 13.7
56 | Nc1ncnc(Nc2ccc(S(N)(=O)=O)cc2)n1 | 6.68
57 | COC(=O)c1ccc(SCC(=O)NC2CCCCC2)c([N+](=O)[O-])c1 | 10.7
58 | Cc1ccc(OC(=O)CCC(=O)Nc2ccc(C)c(C)c2)cc1 | 13.7
59 | C=CCNC(=O)C1CCN(S(C)(=O)=O)CC1 | -0.873
60 | COc1ccc(C(=O)NC2CCN(CC(=O)NCc3ccccc3F)CC2)cc1 | -16.1
61 | O=S(=O)(NCC(c1ccco1)N1CCN(c2ccccc2F)CC1)c1ccccc1 (stereo not drawn) | -4.72
62 | Clc1ccc(Nc2ccc(-n3ccnc3)nn2)cc1Cl | -9.9
63 | CCCCC(=O)N/N=C/c1c(O)n(CCCC)c(=S)[nH]c1=O | 23.6
64 | COc1cc(C(=O)N/N=C2\CCS(=O)(=O)c3ccc(F)cc32)cc(OC)c1OC | 5.47
65 | CN1C(=O)/C(=N\OC(=O)c2ccccc2Cl)c2ccccc21 | -42.8
66 | C=CCN1C(=NC(=O)CCC(=O)O)SC2CS(=O)(=O)CC21 (stereo not drawn) | 9.82
67 | CCOC(=O)c1csc(NC(=O)CCSc2ccccc2)n1 | 18.5
68 | O=C1OCc2cc(NC(=O)C34CC5CC(CC(C5)C3)C4)ccc21 | 13
69 | O=[N+]([O-])c1ccc(-c2nnc3cccc(Cl)n23)cc1 | -7.58

Row | SMILES | hERG current change (%, negative = inhibition) at 10uM [%]
70 | CCN(CC)CCN(C(=O)c1ccc(S(=O)(=O)N2CCOCC2)cc1)c1nc2cc3c(cc2s1)OCCO3.Cl | -69.2
71 | CC(C)(C)NC(=O)C1CCCN(S(=O)(=O)c2ccc(-n3cnnn3)cc2)C1 (stereo not drawn) | -12.5
72 | CCN(CC)S(=O)(=O)c1ccc(/C(O)=C(\C#N)c2nc3ccccc3n2C)cc1 | -9.52
73 | O=C(Cc1ccccc1F)OCC(=O)N1CCc2ccccc21 | 7.04
74 | CCOC(=O)c1cc(NC(=O)N2CCOCC2)c(C)nc1C | -3.82
75 | Cc1ccc(OCC(=O)N2CCN(Cc3ccc([N+](=O)[O-])cc3)CC2)cc1.O=C(O)C(=O)O | -81.2
76 | COc1ccc(-c2cc(C(=O)N3CCCC(C(F)(F)F)C3)c3ccccc3n2)cc1 (stereo not drawn) | 0.635
77 | CC(C)(C)c1ccc(C(=O)Nc2cccc3ncccc23)cc1 | -2.82
78 | CCOc1ccc(OCCOCCn2ccnc2)cc1 | 3.85
79 | CC(c1ccccc1)n1cnc2ccccc21 (stereo not drawn) | 10.9
80 | O=C(NC(=S)N1CCN(C/C=C/c2ccccc2)CC1)c1c(F)cccc1F | -19.8
81 | CCOC(=O)C(=Cc1ccccc1OC)C(=O)OCC | -8.5
82 | COc1ccc(NC(=O)Nc2cc(C)ccc2OC(F)F)c(OC)c1 | -3.75
83 | COC(=O)c1cc(OC)c(OC)cc1NC(=O)CN1C(=O)c2ccccc2C1=O | -44.9
84 | CN(C)C(CNC(=O)Cc1cccc(C(F)(F)F)c1)c1ccccc1 (stereo not drawn) | -2.68
85 | COc1ccc(N(CC(=O)NCc2ccco2)S(=O)(=O)c2ccccc2)cc1 | -2.89
86 | CCCNC(=O)c1ccc(CNc2c(N3CCC(C(=O)OCC)CC3)c(=O)c2=O)cc1 | 3.8
87 | O=C(CSc1nnc(CNC(=O)c2ccccc2F)o1)c1ccccc1 | -14.3
88 | O=C(c1ccc2c(Cl)c3c(nc2c1)CCCC3)N1CCC(N2CCCCC2)CC1 | -46
89 | Cc1c(Br)c([N+](=O)[O-])nn1C(C)C(=O)Nc1ccc2c(c1)OCO2 (stereo not drawn) | -16.8
90 | CCCCCc1ccc(C(=O)CCCC)c(=S)[nH]1 | -15.6

Reference: article PMC4336329 (PLoS ONE, 2015)
